Results: PubChem BioAssay AID463173 (ICCB-Longwood Screening Facility, Harvard Medical School, 2010)
The whole screen tested about 52,000 compounds, of which about 4,300 (8.3%) were called active. Cut-off read from the data, not from the text of the source: active = survival mostly below about 52% (no sharp cut-off); inactive = mostly above about 56%. Some of the results follow.

These compounds were tested on DeltatarO mutant (assay: growth inhibition of S. aureus wild type versus tarO mutant, primary screen, teichoic acid synthesis inhibitors, RN4220, OD600 (AID 463173)). Settings: OD600, 18 h, stronger effect = lower value, screened at 18.75 µg/mL (by protocol).

SMILES	survival
CN1c2ccc(Cl)cc2-c2nc(SCC(=O)NCc3ccc(F)cc3)ncc2S1(=O)=O	inactive: 117%
Cc1cc(Nc2ccc(Br)cc2)n2nc(-c3ccccc3C)nc2n1	active: 27%
CC1=C(C(=O)Nc2ccc(C)cc2C)C(c2ccccc2)n2nc(SCC(=O)c3ccc(C)cc3)nc2N1 (stereo unspecified)	inactive: 116%
O=C(OC(C(=O)NCC1CCCO1)c1ccc(F)cc1)c1ccco1 (stereo unspecified)	inactive: 80%
COc1cc(Cn2c(=O)oc3ccc(C)cc32)ccc1OCCC(C)C	active: -1%
CC(C)(C)c1ccc(S(=O)(=O)N2CCC(Oc3ccc(-n4cnnn4)cc3)CC2)cc1	inactive: 69%
Cc1cn(C)c(CC(=O)NCc2cccc(Cl)c2)c1C(=O)O	active: 20%
CC(C)(C)c1ccc(CSC2=Nc3ccccc3C3=NC(CC(=O)NCc4cccs4)C(=O)N23)cc1 (stereo unspecified)	inactive: 68%
Cc1ccc(CNS(=O)(=O)c2ccc(N3CCCCS3(=O)=O)cc2)cc1	inactive: 83%
O=C(NCC(c1ccc2c(c1)OCO2)N1CCOCC1)c1ccccc1 (stereo unspecified)	inactive: 135%
Cc1c(O)nc(SCC(=O)Nc2ccc(Cl)cc2Cl)n(-c2ccc(F)cc2)c1=O	inactive: 79%
CCN1CCN(c2ncc3c(n2)CCN(Cc2cc(Br)cs2)C3)CC1	active: 6%
CCC(C)NC(=O)c1cc2cc(S(=O)(=O)N3CCCCC3)ccc2n1C (stereo unspecified)	inactive: 55%
Cn1c(CNc2ccc(Cl)cc2)nnc1SCc1ccc(Cl)cc1	inactive: 68%
CCC(C)c1ccc(OCC(=O)Nc2cccc3ccc(C)nc23)cc1 (stereo unspecified)	active: -3%
O=C(c1cc2sccc2n1Cc1ccc(F)cc1)N1CCc2ccccc2C1	inactive: 66%
COc1ccc(NC(=O)c2cccc(N3CCCS3(=O)=O)c2)c(OC)c1	inactive: 89%
CC(C)Cn1cc(NC(=O)NCc2cccc(Cl)c2)c2ccccc2c1=O	inactive: 93%
O=C(NCCc1ccccc1)c1ccc2c(c1)N(Cc1ccc(F)cc1)C(=O)CS2	inactive: 74%
O=C(NCCC1=CCCCC1)c1ccc2c(c1)sc1nc(-c3ccc(F)cc3)cn12	inactive: 63%
Cc1ccc2oc(C(=O)Nc3sc4c(c3C(=O)NCC3CCCO3)CCC4)cc(=O)c2c1 (stereo unspecified)	inactive: 79%
CCOC(=O)c1c(NC(=O)c2cc(=O)c3cc(C)ccc3o2)sc2c1CCCC2	inactive: 69%
COc1ccc(Cl)cc1NC(=O)CSC1=Nc2ccccc2C2=NC(CCC(=O)NCc3ccco3)C(=O)N12 (stereo unspecified)	inactive: 88%

SMILES	survival
Cc1ccc(Cn2c(CCNC(=O)c3cccc(C)c3)nc3ccccc32)cc1	inactive: 60%
CC(=O)N/C(N)=N\c1nc(C)c2ccc(C)cc2n1	inactive: 73%
N#Cc1c(NC(=O)c2cnn3c(C(F)(F)F)cc(-c4ccco4)nc23)sc2c1CCCC2	inactive: 87%
Cc1cccc(NC(=O)CN2C(=O)C3(SCC(=O)N3c3ccccc3)c3ccccc32)c1 (stereo unspecified)	inactive: 123%
Cc1ccc(Cn2c(C(=O)O)c(CNCc3ccc(C)o3)c3ccc(C)cc32)cc1	inactive: 52%
Cc1ccc(S(=O)(=O)N2CCN(Cc3ccccc3Cl)CC2)cc1	active: 13%
COc1cccc(Cn2c(=O)n(CC3CCC(C(=O)NC(C)C)CC3)c(=O)c3sccc32)c1 (stereo unspecified)	inactive: 101%
Cc1ccc(C2=NN(CC(=O)NCCc3ccccc3)C(=O)CC2)cc1	inactive: 69%
Cc1ccc(CCNS(=O)(=O)c2ccc3c(c2)C(C(C)C)C(=O)N3)cc1 (stereo unspecified)	inactive: 116%
COc1cc(NC(=O)CN2C(=O)CCc3cc(Br)ccc32)cc(OC)c1OC	inactive: 64%
CC(=O)N1c2ccccc2C(=O)C1N1CCN(c2cccc(Cl)c2)CC1 (stereo unspecified)	inactive: 90%
COc1cc(OC)c(C2CC(=O)Nc3ccc4ccccc4c32)cc1OC (stereo unspecified)	inactive: 122%
CC(NC(=O)c1cc2c(=O)n3ccccc3nc2n(C(C)C)c1=N)c1ccccc1 (stereo unspecified)	inactive: 67%
COC(=O)c1ccccc1NC(=O)c1nc(-c2ccc(C)cc2)n2c1CCCCC2	inactive: 63%
O=C(CN1C(=O)CSC1=O)NCc1ccccc1	inactive: 95%
Cc1cc(F)ccc1NC(=O)CCS(=O)(=O)c1cc2c(cc1C)NC(=O)CO2	inactive: 95%
COc1ccccc1Nc1ncc2c(n1)CCN(Cc1ccc(C)s1)C2	inactive: 72%
CCOC(=O)N1CCC(NC(=O)c2c(C)nn(-c3cccc(C)c3)c2-n2cccc2)CC1	inactive: 89%
CCOC(=O)c1ccc(NC(=O)CSc2nc3c(c(=O)[nH]2)CN(Cc2ccccc2)CC3)cc1	inactive: 64%
Cc1ccc2c(=O)c(C(=O)c3cccc(Cl)c3)cn(CC(=O)NC3CCCCC3)c2n1	inactive: 104%
CC(C)(C)C(=O)NCCc1nc2ccccc2n1CCCCOc1ccccc1	active: 41%
Cc1ccc(N(CC(=O)N2CCN(c3ccc(F)cc3)CC2)S(=O)(=O)c2c(C)noc2C)cc1	inactive: 83%
CCOc1ccc(C2c3c(-c4cc(C)ccc4O)n[nH]c3C(=O)N2Cc2cccnc2)cc1OCC (stereo unspecified)	inactive: 72%

SMILES	survival
COc1ccccc1NC(=O)CC(C)n1nc(C)cc1C (stereo unspecified)	inactive: 67%
Nc1ccccc1-c1nc2ccccc2s1	inactive: 78%
CCCN(Cc1cc2cccc(C)c2[nH]c1=O)C(=O)c1cccc(Cl)c1	inactive: 75%
Cc1ccc(CSc2cn(CC(=O)N3CCCCCC3)c3ccccc23)cc1	inactive: 84%
COc1cccc(CNC(=O)Cn2ncc3c(=O)oc4ccccc4c32)c1	inactive: 126%
O=S(=O)(NCc1ccc(F)cc1)c1ccc(N2CCCCS2(=O)=O)cc1	inactive: 99%
O=C(CC1CCCCC1)NCC1CCCO1 (stereo unspecified)	inactive: 103%
CCOc1ccccc1CNCCCSc1nnnn1C	inactive: 69%
CCn1cc(/C=C(\NC(=O)c2cc(OC)c(OC)c(OC)c2)C(=O)NCCCn2ccnc2)c2ccccc21	inactive: 109%
Cc1cc(NC(=O)Cc2ccccc2)cc(-c2nc3ccccc3o2)c1O	inactive: 79%
CCOC(=O)c1cc2c(=O)n3ccccc3nc2n(C(C)C)c1=NC(=O)C(C)(C)Oc1ccc(Cl)cc1	inactive: 57%
Cc1nc(-c2ccc(F)cc2)sc1CCNC(=O)Cc1ccc(F)cc1	inactive: 81%
Cc1c(C(=O)NCCN(C)C)oc2c1-c1nn(Cc3cccc(Cl)c3)cc1CC2	inactive: 77%
CC(C)CC(=O)Nc1cccc(-c2nnc(-c3cccc(NC(=O)CC(C)C)c3)o2)c1	inactive: 71%
CN(C)c1ccc(Nc2ncnc3c2c(-c2ccccc2)cn3-c2cccc(Cl)c2)cc1	inactive: 107%
Cc1cccc(C)c1NC(=O)Cn1nnc(S(=O)(=O)c2ccccc2)c1N	inactive: 91%
O=C1CN(C(=O)c2ccc(S(=O)(=O)N3CCCC3)cc2)C(c2ccccc2)c2cc(F)ccc2N1 (stereo unspecified)	inactive: 73%
CC1CCCC(C)N1C(=O)CSc1nc2ccccc2n1CC(=O)NC1CCCC1 (stereo unspecified)	inactive: 82%
Cn1nnc2cc(C(=O)NCc3ccco3)ccc21	inactive: 79%
N#Cc1c(-c2ccccc2)cc(-c2ccccc2)nc1SCC(O)CS(=O)(=O)Cc1ccc(Cl)cc1 (stereo unspecified)	inactive: 67%
O=C(CSc1nc(=O)n(Cc2ccccn2)c2c1CCC2)Nc1ccccc1	inactive: 67%
Cc1cccc(CCNCc2cc3cc4c(cc3[nH]c2=O)OCO4)c1	inactive: 85%
CSc1ccccc1NC(=O)CCS(=O)(=O)c1nc(-c2ccc3c(c2)OCO3)cc(C(F)(F)F)n1	inactive: 132%

SMILES	survival
CN(C)S(=O)(=O)c1ccc(S(=O)(=O)N2CCC(c3nc4ccccc4s3)CC2)cc1	inactive: 103%
COc1cc(CNC(=O)c2cnc(SC)nc2-c2ccccc2)cc(OC)c1OC	inactive: 58%
Cc1ccc(S(=O)(=O)C(CNS(=O)(=O)c2cc(F)ccc2F)c2cccs2)cc1 (stereo unspecified)	inactive: 64%
Cc1cccc(S(=O)(=O)c2cn(Cc3ccccc3)c3cc(N4CCCCC4)c(F)cc3c2=O)c1	inactive: 82%
CC(=O)Nc1ccccc1-c1n[nH]c(=S)[nH]c1=O	inactive: 95%
COC(=O)c1ccccc1NS(=O)(=O)c1cc2c(cc1C)N(C)CCO2	inactive: 87%
COc1ccc(CCC(=O)NC2CC(=O)N(c3ccc(F)cc3)C2)cc1 (stereo unspecified)	inactive: 74%
CCN(CC)C(=O)c1c(-c2ccccc2)c(-c2ccccc2)nn(CC)c1=O	inactive: 108%
COc1ccccc1N1CCN(C(=O)CN2C(=O)COc3ccc(S(=O)(=O)N4CCOCC4)cc32)CC1	inactive: 86%
O=C1C(CO)NC(=S)N1c1ccccc1 (stereo unspecified)	inactive: 125%
CCC1CCCCN1c1ncnc2c1nnn2Cc1ccccc1Cl (stereo unspecified)	inactive: 99%
CCN(Cc1nc(-c2ccc(OC)c(OC)c2)no1)S(=O)(=O)c1ccc(OC)cc1	inactive: 47%
CC1CN(C(=O)N(C)C)CCN1C(=O)N(C)C (stereo unspecified)	inactive: 99%
CC1Cc2ccccc2N1C(=O)c1cnsn1 (stereo unspecified)	inactive: 97%
COc1ccc(NC(=O)C(=O)NCCc2csc3nc(-c4ccccc4F)nn23)cc1OC	inactive: 67%
CC(=O)c1ccc(NS(=O)(=O)c2ccc3c(c2)NC(=O)CCS3)cc1	inactive: 84%
O=C1C2C3C=CC(C3)C2C(=O)N1CCN1C(=O)C2C3C=CC(C3)C2C1=O (stereo unspecified)	inactive: 101%
O=C(NC12CCC(O)C(SC1)/C2=N/O)c1ccccc1 (stereo unspecified)	inactive: 98%
CCCNC(=O)c1ccc2c(c1)nc1n2CCCCC1	inactive: 94%
Cc1noc(C)c1S(=O)(=O)N(CC(=O)Nc1ccc(F)cc1F)c1ccc(C(C)C)cc1	inactive: 67%
Cc1ccc(NC(=O)C2CCN(S(=O)(=O)c3cccc4nsnc34)CC2)cc1F	inactive: 84%
COc1ccc(Cn2ccc3nc(C)c(C(=O)Nc4cccc(SC)c4)cc3c2=O)cc1	inactive: 95%
